Experimental data: paper PMC3538594 (PLoS ONE, 2013)
Where two headings read alike, the source gives them in different places.

Assays:
[1] = target: Native complex II (Thermus thermophilus, UniProt Q5SIB8+Q5SIB9+Q5SIC1); conditions: 30°C, cited from earlier work
[2] = target: T1, wt-rcII (Thermus thermophilus, UniProt Q5SIC0); experiment: biochemical
[3] = target: T2, rcII-SdhB-His6 (Thermus thermophilus, UniProt Q5SIC0); experiment: biochemical
[4] = target: T3, rcII-His8-SdhB (Thermus thermophilus, UniProt Q5SIC0); experiment: biochemical
[5] = target: T1, wt-rcII; conditions: read-out: cKi (competitive inhibition); 30°C
[6] = target: T2, rcII-SdhB-His6; conditions: read-out: cKi (competitive inhibition); 30°C
[7] = target: T3, rcII-His8-SdhB; conditions: read-out: cKi (competitive inhibition); 30°C
[8] = target: T2, rcII-SdhB-His6; experiment: succinate dehydrogenase activity, DCPIP/1,4-NQ set up; assay type: biochemical, T. thermophilus; conditions: 30°C; read-out: nKi (non-competitive inhibition)
[9] = target: T3, rcII-His8-SdhB; experiment: as above; assay type: biochemical, T. thermophilus; conditions: 30°C; read-out: nKi (non-competitive inhibition)
[10] = read-out: cKi (competitive inhibition)

Row | SMILES | Ki ([1]; read-out: iKiapp (irreversible inhibition)) | Ki [2] | Ki [3] | Ki [4] | Ki [5] | Ki [6] | Ki [7] | Ki [1, 10] | Ki [8] | Ki [9]
1 | O=C(O)CC[N+](=O)[O-] [3-NP, 3-Nitropropionic acid] | 230 µM | 200 µM | 290 µM | 270 µM | – | – | – | – | – | –
2 | O=C(O)CC(=O)O [Malonate, malonate] | – | – | – | – | 65 µM | 58 µM | 55 µM | 40 µM | – | –
3 | CCCCCCCCCc1cc(O)c2ccccc2[n+]1[O-] [NQNO] | – | – | – | – | – | – | – | – | 80 µM | 77 µM
4 | O=C(O)CC(=O)C(=O)O [Oxaloacetate] | – | 51 µM | 21 µM | 85 µM | – | – | – | 17 µM | – | –
